Measurements taken from article PMC4336329 (PLoS ONE, 2015).
Among all 310,000 compounds or so, about 14,000 (4.5%) showed an effect of 50% or more. The effect is printed as a negative number. Some of the results follow.

The compounds below were run against human ether-à-go-go-related gene (hERG) potassium channel (human, UniProt Q12809) (assay: primary screen, population patch clamp on CHO cells stably expressing hERG).
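Also: peak tail current of the secondary pulse compared with the same well before compound.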

human ether-à-go-go-related gene (hERG) potassium channel, sequence (Q12809 whole entry, looked up): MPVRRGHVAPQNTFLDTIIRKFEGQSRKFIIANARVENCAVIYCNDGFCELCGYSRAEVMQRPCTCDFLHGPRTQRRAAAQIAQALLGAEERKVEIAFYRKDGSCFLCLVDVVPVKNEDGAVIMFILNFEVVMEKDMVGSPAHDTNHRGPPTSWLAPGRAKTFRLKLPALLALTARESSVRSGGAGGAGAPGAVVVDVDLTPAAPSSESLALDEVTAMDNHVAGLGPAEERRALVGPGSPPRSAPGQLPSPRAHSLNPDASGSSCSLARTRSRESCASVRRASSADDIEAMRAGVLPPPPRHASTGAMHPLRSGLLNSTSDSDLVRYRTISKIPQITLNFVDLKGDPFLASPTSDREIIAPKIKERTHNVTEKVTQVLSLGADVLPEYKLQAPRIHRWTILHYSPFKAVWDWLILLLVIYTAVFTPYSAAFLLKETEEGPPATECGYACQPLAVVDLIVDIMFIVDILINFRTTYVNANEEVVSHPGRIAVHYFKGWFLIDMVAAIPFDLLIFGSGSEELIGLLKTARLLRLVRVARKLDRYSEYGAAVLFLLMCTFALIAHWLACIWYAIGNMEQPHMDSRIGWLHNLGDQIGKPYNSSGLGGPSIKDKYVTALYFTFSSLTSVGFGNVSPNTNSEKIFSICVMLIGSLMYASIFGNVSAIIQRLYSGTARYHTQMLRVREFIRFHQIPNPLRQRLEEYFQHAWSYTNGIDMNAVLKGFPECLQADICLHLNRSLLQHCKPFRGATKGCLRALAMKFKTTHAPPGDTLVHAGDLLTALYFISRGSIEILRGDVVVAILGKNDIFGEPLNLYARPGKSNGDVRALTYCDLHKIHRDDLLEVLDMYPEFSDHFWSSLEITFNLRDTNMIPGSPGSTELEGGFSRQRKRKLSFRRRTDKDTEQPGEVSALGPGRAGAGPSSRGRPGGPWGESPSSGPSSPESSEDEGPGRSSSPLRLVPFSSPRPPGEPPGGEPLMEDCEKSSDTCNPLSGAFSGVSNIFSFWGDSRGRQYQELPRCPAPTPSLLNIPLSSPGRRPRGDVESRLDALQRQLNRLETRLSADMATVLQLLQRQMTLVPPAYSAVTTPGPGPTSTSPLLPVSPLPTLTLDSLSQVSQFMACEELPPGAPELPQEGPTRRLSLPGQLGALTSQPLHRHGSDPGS

| Structure (SMILES) | hERG current change (%, negative = inhibition) at 10uM |
| --- | --- |
| Cc1cc(=O)[nH]c(N/N=C/c2c(C)nn(-c3ccc(F)cc3)c2Cl)n1 | -3.64% |
| Cc1cc(N/C=C(\C#N)S(=O)(=O)c2ccccc2Cl)nc(C)n1 | -9.32% |
| CCn1c(SCC(=O)Nc2nc3ccccc3s2)nnc1-c1ccc(Br)cc1 | -0.534% |
| COC(=O)/C=C/c1cc(F)ccc1S(=O)(=O)NC(C)(C)C | -7.41% |
| CCOC(=O)c1[nH]ncc1CN1CCCC(C(=O)c2cccc(OC(C)C)c2)C1 (centres unmarked) | -42.1% |
| CC(C)(NC(=O)N1CCOCC1)c1cccc(C(C)(C)NC(=O)N2CCOCC2)c1 | 22% |
| O=C(CSc1nnnn1C1CC1)Nc1ccc(S(=O)(=O)N2CCOCC2)cc1 | 11.2% |
| O=C(Nc1ccc(S(=O)(=O)N2CCCCC2)cc1)c1cnccn1 | 12.5% |
| COc1cccc(CC2(CO)CCN(S(=O)(=O)c3ccc(OC)cc3OC)CC2)c1 | -10.7% |
| CC(C)(C)c1nnc(NC(=O)C2CCN(c3ncccn3)CC2)s1 | -0.927% |
| N#C/C(=C\c1ccc(OC(=O)c2ccc(Cl)s2)cc1)c1nc2ccccc2[nH]1 | 6.95% |
| O=C(O)Cc1sc(NCCc2ccccc2)nc1-c1ccc(F)cc1 | 3.77% |
| O=C(/C=C/c1ccccc1)N1CCN(C(=O)c2ccco2)CC1 | -28.6% |
| CC(OC(=O)CNC(=O)c1ccc(Cl)cc1)C(=O)NC1CCCCC1C (centres unmarked) | 7.38% |
| CCOc1ccc(C(CC(=O)O)NC(=O)c2ccco2)cc1OC (centres unmarked) | 8.09% |
| CC(C)(C)NC(=O)NC(=O)CSc1nnc2ccccn12 | -2.98% |
| O/N=C/c1cn(-c2ccccc2)nc1-c1ccccc1 | 18.6% |
| Cc1cc(C)c2cc(CN(Cc3nnnn3Cc3ccc(F)cc3)C3CCCC3)c(=O)[nH]c2c1 | -4.26% |
| CN1CCN(C(=O)CCN2C(=O)/C(=C\c3ccc(Cl)cc3Cl)SC2=S)CC1 | 11.8% |

| Structure (SMILES) | hERG current change (%, negative = inhibition) at 10uM |
| --- | --- |
| Cc1onc(-c2ccccc2Cl)c1C(=O)Nc1ccc(N2CCOCC2)cc1 | -11.8% |
| Cc1ccc(NC(=O)CCn2cnc3ccccc3c2=O)cc1 | 15% |
| Cc1cccc(N2CCN(C(=O)COCc3cc(-c4ccc5c(c4)OCO5)on3)CC2)c1C | -3.21% |
| O=c1[nH]c(/C=C/c2ccccc2Cl)nc2ccccc12 | 10% |
| C=CCNC(=S)NNC(=O)CCC(O)COCCC(C)C (centres unmarked) | -0.312% |
| CCOC(=O)c1ccccc1NC(=O)CCNC(=O)Cn1cnc2ccccc2c1=O | 3.37% |
| COc1ccc(NC(=O)C(C)N2c3cccc4cccc(c34)S2(=O)=O)cc1 (centres unmarked) | -8.6% |
| O=C1/C(=C\c2ccc(Cl)cc2Cl)N2CCC1CC2 | 5.03% |
| O=C(NCCOc1cccnc1)C1CCC(=O)N(Cc2ccccc2F)C1 (centres unmarked) | 11.2% |
| CCN1C(=O)[C@@H]2Cc3c([nH]c4ccccc34)C(c3cc(OC)c(OC)c(OC)c3)N2C1=S (some centres unmarked) | -7.32% |
| COc1ccccc1Oc1c(C)oc2c(CN3CCOCC3)c(O)ccc2c1=O | 13.4% |
| CCOC(=O)C1CCCN(CC(O)COc2ccc(OC)cc2C(C)(C)C)C1 (centres unmarked) | -61.4% |
| CCCCNC(=O)Nc1nnc(-c2ccccc2)o1 | -14.5% |
| C[C@H](NC(=O)C1CCN(S(=O)(=O)c2ccccc2)CC1)C(=O)NCc1ccccn1 | 20.6% |
| CN(Cc1ccco1)S(=O)(=O)c1cc(F)ccc1CN1C(=O)c2cccnc2C1=O | -47.6% |
| O=C(O)C1CCCCC1C(=O)NCc1ccc2c(c1)OCO2 (centres unmarked) | 1.76% |
| CCc1c(C(=O)N/N=C/c2ccsc2)csc1C | 6.13% |
| CCOc1ccc2[nH]c3c(NCCO)ncnc3c2c1 | 23.1% |
| COc1ccc(NC(=S)N2CCN(C/C=C/c3ccccc3)CC2)c(OC)c1 | -64.2% |

| Structure (SMILES) | hERG current change (%, negative = inhibition) at 10uM |
| --- | --- |
| COc1ccccc1OCCn1c(C)c(C=O)c2ccccc21 | -2.11% |
| Cc1ccc(C(=O)Nc2nncs2)cc1S(=O)(=O)N1CCOCC1 | -3.86% |
| O=C(N1CCCCCC1)n1c(Cc2ccccc2)nc2ccccc21 | -30.5% |
| COc1ccc(C(=O)N2CC(=O)N(CCc3ccccc3)C(=O)C2)cc1OC | -15.1% |
| O=C(COC(=O)/C=C/c1ccco1)Nc1ncc(C(F)(F)F)cc1Cl | -11.6% |
| COc1ccc(C(=O)c2c[nH]c(C(=O)NCc3ccco3)c2)cc1 | 5.33% |
| CCOC(=O)c1cnc(-n2nc(C)cc2C)[nH]c1=O | 3.62% |
| O=C(O)c1ccc2c(c1)C(=O)N(C(Cc1ccc(O)cc1)C(=O)O)C2=O (centres unmarked) | -6.54% |
| CCc1nnc(NC(=O)CSC(=S)N2CCOCC2)s1 | 14.6% |
| COCCCn1c(-c2ccc(OC)cc2)cc(C(=O)NC2CCCCCCC2)c1C | -19.6% |
| Cc1ccc(C)c(NC(=O)C(Sc2cccc[n+]2[O-])c2ccccc2)c1 (centres unmarked) | 0.828% |
| COc1cc(C(=O)O)cc(NC(=O)c2cccs2)c1OC | 13% |
| CCN(Cc1cc(=O)[nH]c2ccccc12)C(=O)C(C)C | -2.37% |
| COc1cccc(C(c2c(N)n(C)c(=O)n(C)c2=O)C(C)[N+](=O)[O-])c1 (centres unmarked) | 6.06% |
| CCOC(=O)N1CCN(C(=O)c2cc(COc3ccc(F)cc3F)on2)CC1 | -17.1% |
| CCN(CC)S(=O)(=O)c1ccc(N2CCCC2)c(NC(=O)c2ccccc2OC)c1 | -65.7% |
| CCCc1cc(C(=O)Nc2nccs2)cs1 | -10.3% |
| CS(=O)(=O)N1CCN(c2ccccc2NC(=O)C(c2ccccc2)c2ccccc2)CC1 | 3.92% |
